In publication PMC4336329 (PLoS ONE, 2015):
About 14,000 (4.5%) of roughly 310,000 compounds showed an effect of 50% or more. The effect is printed as a negative number. The list shows a part of the results.

Target: human ether-à-go-go-related gene (hERG) potassium channel (human, UniProt Q12809)
Test: primary screen, population patch clamp on CHO cells stably expressing hERG
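Also: peak tail current of the secondary pulse compared with the same well before compound.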

Chain of human ether-à-go-go-related gene (hERG) potassium channel (Q12809 whole entry, looked up): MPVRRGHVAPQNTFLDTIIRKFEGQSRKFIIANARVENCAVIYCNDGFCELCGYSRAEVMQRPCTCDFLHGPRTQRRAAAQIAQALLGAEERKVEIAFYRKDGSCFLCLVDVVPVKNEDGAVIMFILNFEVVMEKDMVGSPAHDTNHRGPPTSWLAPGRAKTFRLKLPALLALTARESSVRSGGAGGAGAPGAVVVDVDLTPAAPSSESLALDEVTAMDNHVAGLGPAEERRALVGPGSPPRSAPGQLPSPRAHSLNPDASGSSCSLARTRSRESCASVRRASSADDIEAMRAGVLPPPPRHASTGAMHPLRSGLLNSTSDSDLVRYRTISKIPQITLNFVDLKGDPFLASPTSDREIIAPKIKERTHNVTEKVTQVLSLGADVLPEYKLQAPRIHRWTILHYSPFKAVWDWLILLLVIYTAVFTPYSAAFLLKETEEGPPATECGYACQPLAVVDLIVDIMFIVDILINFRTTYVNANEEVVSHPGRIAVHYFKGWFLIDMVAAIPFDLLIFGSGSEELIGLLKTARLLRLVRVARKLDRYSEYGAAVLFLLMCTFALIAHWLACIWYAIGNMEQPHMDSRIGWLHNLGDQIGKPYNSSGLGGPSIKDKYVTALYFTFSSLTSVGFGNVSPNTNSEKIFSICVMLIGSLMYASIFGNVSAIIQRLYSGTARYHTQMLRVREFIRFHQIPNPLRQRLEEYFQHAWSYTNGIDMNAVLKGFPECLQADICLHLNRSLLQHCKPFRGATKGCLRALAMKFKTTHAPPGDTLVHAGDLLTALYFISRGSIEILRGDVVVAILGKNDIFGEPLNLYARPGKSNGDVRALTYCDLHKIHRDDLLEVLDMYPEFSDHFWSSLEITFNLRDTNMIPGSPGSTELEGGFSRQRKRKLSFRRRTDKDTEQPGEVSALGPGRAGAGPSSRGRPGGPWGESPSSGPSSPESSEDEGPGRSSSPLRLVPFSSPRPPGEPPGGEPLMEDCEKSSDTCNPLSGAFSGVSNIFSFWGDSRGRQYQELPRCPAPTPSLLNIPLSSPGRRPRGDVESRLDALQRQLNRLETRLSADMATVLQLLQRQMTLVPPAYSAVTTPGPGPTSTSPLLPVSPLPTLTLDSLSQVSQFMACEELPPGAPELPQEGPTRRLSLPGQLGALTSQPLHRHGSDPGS

SMILES	hERG current change (%, negative = inhibition) at 10uM [%]
COc1cc([N+](=O)[O-])c(C(=O)N2CCOCC2)c([N+](=O)[O-])c1	7.66
O=C(NCc1ccncc1)C(=O)NCC1OCCCN1S(=O)(=O)c1cc(F)ccc1F (centres unmarked)	4.86
COC(=O)c1nn(-c2cccc(C)c2)c2nnc(Cc3ccc(C)cc3)c(=O)n12	7.2
CC1CCN(C(=O)CSc2nc3ccccc3[nH]2)CC1	-6.38
Cc1ccc(OCC(=O)Nc2ccc([N+](=O)[O-])cc2)cc1	5.9
O=C1CC(C(=O)Nc2ccc(F)cc2)S/C(=N\N=C\c2ccco2)N1 (centres unmarked)	2.54
O=C(CN1CCN(S(=O)(=O)c2ccc(Cl)cc2)CC1)Nc1ccc2c(c1)CCC2	-3.08
CC1CN(c2ccc(Cl)nn2)CC(C)O1 (centres unmarked)	24.7
Cc1cc(NC(=O)CCC(=O)N(CC(=O)NC2CCCC2)c2ccc3c(c2)OCCO3)no1	6.74
COC(=O)C(c1ccccc1)C1(O)CC(C)N(C)CC1C (centres unmarked)	1.96
Cc1cc(C(=O)CCC(=O)Nc2ccc(S(N)(=O)=O)cc2)c(C)s1	9.72
O=C(Oc1ccc2c(c1)OCO2)c1cc2c(s1)CCC2	8.84
CCC(C)(C)NC(=O)C(c1ccc(OC)cc1)N(C(=O)CCC(=O)Nc1cc(C)on1)c1cccc(OC)c1 (centres unmarked)	1.47
CC(=O)Nc1ccc(NC(=O)c2cc(-c3ccc(C)c(C)c3O)n[nH]2)cc1	18.5
N/C(=N\OC(=O)c1ccc(=O)n(Cc2ccccc2)c1)c1ccccn1	51.6
Cc1ccccc1-c1nc(CS(=O)(=O)CC(=O)NCCCN2CCOCC2)c(C)o1	-0.453
CC(OC(=O)c1ccco1)C(=O)Nc1ncc(Cl)cc1Cl (centres unmarked)	7.63
CC(=O)Oc1ccc(-c2cccc(C(=O)N(C)c3ccc(O)cc3)c2)cc1	-17.8
Cc1ccc(S(=O)(=O)N2CCOC2CNC(=O)C(=O)NCCN2CCOCC2)cc1 (centres unmarked)	10.6
COc1ccc(C(C(=O)NC2CCCC2)N(Cc2ccccc2)C(=O)c2nsc(Cl)c2Cl)cc1 (centres unmarked)	6.84
COC(=O)c1cc(-c2ccccc2)on1	-8.87

SMILES	hERG current change (%, negative = inhibition) at 10uM [%]
COc1ccccc1N(CC(O)CN1CCCC1)S(=O)(=O)c1ccccc1 (centres unmarked)	-4.48
COc1cc(C(=O)NCc2cccc(Cl)c2)ccc1OCC(=O)N1CCOCC1	-13.2
C=CC(COCc1ccccc1)N(Cc1ccccc1)S(=O)(=O)c1ccccc1Br (centres unmarked)	2.07
Cc1oc(C(N)=O)cc1COc1ccc(C(N)=O)cc1	10.5
CN1CCC(=NNC(=O)C(=O)Nc2ccccc2)CC1	6.07
OCCC1CN(Cc2ccc(F)cc2)CCN1CCc1ccccc1 (centres unmarked)	-74.2
CC(C)(C)NC(=O)C1CCCN(S(=O)(=O)c2cccc3cccnc23)C1 (centres unmarked)	2.94
CCN(CC)P(=O)(Nc1cccc(C(F)(F)F)c1)c1ccc(N(C)C)cc1NC(=O)c1ccco1 (centres unmarked)	1.31
COCCSc1nc(N)c(NC(=O)c2ccc(OC)cc2)c(=O)[nH]1	25.2
CCOC(=O)CC1C(=O)NCCN1c1nc2ccc(C)cn2c(=O)c1/C=C1\SC(=S)N(C(C)CC)C1=O (centres unmarked)	-2.49
O=S(=O)(NC1CCN(Cc2ccccc2)CC1)c1ccc(Cl)cc1	-41.3
COc1cccc(/C=C/C(=O)Nc2ccc(N3CCOCC3)cc2)c1OC	-7.24
CCC(C(=O)NCc1ccco1)n1nc(C)c2c(C)n(-c3ccccc3)nc2c1=O (centres unmarked)	-8.91
CCCC1(c2ccccc2)NC(=O)N(CC(=O)c2[nH]c(C)c(C(=O)OCC)c2C)C1=O (centres unmarked)	12.5
COc1cc(/C=C/C(=O)OCC(=O)NCc2ccco2)cc(OC)c1OC	16.3
C=CCn1c(SCC(=O)NCc2ccccc2)nnc1-c1ccccc1O	-3.41
CCOC(=O)Nc1nnc(-c2ccc(OC)c(OC)c2)s1	2.95
CC(=O)c1cccc(CN2CCCC(C(=O)Nc3cccc(-n4cccn4)c3)C2)c1 (centres unmarked)	-23.9
Cc1ccc(NC(=O)CN2CCOCC2)cc1Cl	8.02
CN(Cc1cn(C)nc1-c1ccc(Oc2ccccc2)cc1)CC1COCCO1 (centres unmarked)	-44.4
